Data as given in publication PMC12605009.

Target: PANA_2924 C-terminal domain after TEV cleavage of the His tag (Pantoea ananatis LMG 20103) (UniProt D4GKQ2)
Test: SEC; complex after IMAC and TEV cleavage on Superdex 75 Increase 10/300 GL, 20 mM Tris-HCl pH 8.5, 150 mM NaCl, 1 mM TCEP; mass from a calibration curve

“PANA_2923 immunity protein, untagged (natural protein)” gave a stoichiometry N of 1.
